Experimental data reported in the RNAGym collection of RNA variant scans (doi:10.1093/nar/gkz1192).
Read counts are not given, so values of variants with three or more changes are uncertain.

B1: CPEB3 Ribozyme (parent)
chain: UAACAGGGGGCCACAGCAGAAGCGUUCACGUCGCAGCCCCUGUCAGAUUCUGGUGAAUCUGCGAAUUCUGCUGUAUAUCUC

Variants of: B1
Assay: self-cleavage, relative activity (ratio to wild type); higher = more cleavage; in vitro, sequencing
Procedure, shortened: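 CPEB3 self-cleaving ribozyme mutant libraries were made by rounds of error-prone PCR, barcoded, and transcribed in vitro with T7 RNA polymerase for 5 hours at 37°C. Cleavage occurred during transcription and a 15 min DNase I step before EDTA stop. RNAs were reverse transcribed with template switching and Illumina-sequenced, with DNA sequencing mapping barcodes to variants. Relative activity is the variant's cleaved/total read fraction divided by wild type's (minimum 5 reads), averaged across three batches.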

Variant	self-cleavage
UAACAGGGGGCCACAGCAGUAGCAUUCACGUCGCAGCCCCUGUCAGAUUCUGGUGAAUCUGCGAAUUCUGCUGUAUAUCCC	0.08
UAACAGGGGGCCACAGCAGUAGCGUUCAUGUCGCAGCCCCUGUCAGAUUCUGGUGAAUCUGCGAAAUCUGCUGUAUAUCUC	0.17
UAACAGGGGGCCACAGCAGUAGCGUUCACGUCGCAGCCCCUGUCAAAUUCUGGUGAAUCUGCGUAUUCUGCUGUAUAUCUC	0.16
UAACAGGGGGCCACAGCAGUAGCGUUCACGUCGCAGCCCCUGUCAGGUUCCGGUGAGUCCGCGAAUUCUGCCGUAUAUCUC	0.22
UAACAGGGGGCCACAGCAGUAGCGUUCACGUCGCAGCCCCUGUCAGAUUCUGGUGAAUCUGUGAAUUUUGCUGUAUAUCUA	0.07
UAACAGGGGGCCACAGCAGUAGCGACCACGUCGCAGUCCCCGUCAGAUUCUGGUGAAUCUGCGAAUUCUGCUGUAUAUCUC	0.16
UAACAGGGGGCCACAGCAGUAGCGUUAACGUCGCAGCCCCUGCCAGAUUCUGGUGGAUCUGCGAAUUCUGCUGUAUAUCUC	0.06
UAACAGGGGGCCACAGCAGUAGCGUUCACGUCGCAGCUCCUGUCGGAUUCUGGUGAAUCUGCGAAUUCUGCUGUACAUCUC	0.24
UAACAGGGGGCCACAGCAGUAGCAUUCACGUCGCAGCCCCUGUCAGAAUCUGGUGAAUCUGCGAAUUCUGGUGUAUAUCUC	0.09
UAACAGGGGGCCACAGCAGUAGCGUUCAUGCCGCAGCCCCUGUCAGAUUCUGGUGAAUCUGCGAAUUCUGCUGUAUAUCUC	0.17
UAACAGGGGGCCACAGCAGUAGCGUUCACGUCACAGCCCCUGUCAGAUUCUGGUGAACCUGCGAAUCCUGCUGUAUAUCUC	0.09
UAACAGGGGGCCACAGCAGUAGCGUUCACGUCGUAGCCCCUGUCAGAUUCAGGUGAAUCUGCGAAUUCCGCUGUAUAUCUC	0.05
UAACAGGGGGCCACAGCAGUAGCGUUCACGUCGUAGCCCCAGUCAGAUCCUGGCGAAUCUGCGAAUUCUGCUGUAUAUCUC	0.06
UAACAGGGGGCCACAGCAGUAGCGUUCACGUCGCAGCCCCUGUCAGAUUCUCGUGAAUCUGCGAAUUCUGCUGUAAAUCUC	0.27
UAACAGGGGGCCACAGCAGUAGCGUUCACGUCGCAGCCCAUGUCAGAUUCUGGUGAAUCUGCAAAUUCUGCAGUAUAUCUC	0
UAACAGGGGGCCACAGCAGUAGCGUUCACGUCGCAGCCCCUGUCUGAUUCUGGUGAAUCUGCGAAUUCUGCUGUAUAUCCC	0.15
UAACAGGGGGCCACAGCAGUAGCGUUCACGUCGCAGCCCCUGUCAGAUUCUGGUGUAUCUGCGAACUCUGCUGUAUAUCUC	0.14

Variant	self-cleavage
UAACAGGGGGCCACAGCAGUAGCAUUCGCGUCGCAGCCCCUGUCAGAUCCAGGUGAAUCUGCGAAUUCUGCUGUAUAUCUC	0.08
UAACAGGGGGCCACAGCAGUAGCGUUCACGUCGCAGCCCCUGUCAGAUUCUGGUGAAUCUGCGACUUCUGCAGUAUAUCCC	0.12
UAACAGGGGGCCACAGCAGUAGCGUUCACGUCGCAGCCCCUGUCAGAUUCUGGUGAAUCUGCGAGUCCUGCUGCAUAUCUC	0.17
UAACAGGGGGCCACAGCAGUAGCGUUCACGUCGCAGCCCCUGUCAGAUUCUGGUGGAUCUGAGAAUUCCGCUGUAUAUCUC	0.13
UAACAGGGGGCCACAGCAGUAGCGUUCACGUCGCAGCACCUGUCAGAUUCUGGUGAAUCUGUGAAUUCUGCUGUAUAUCAC	0.17
UAACAGGGGGCCACAGCAGUAGCGUUCACGUCGCAGCCCCUGUCAGAUUCUGGUGAAUCUGCGAGUUCUGCCGUAUAUCUC	0.15
UAACAGGGGGCCACAGCAGUAGCGUUCACGUCGCAGCCCCUGUCAGAUUAUGGAGAAUCUGCGAAUUCUGCUGUAUAUCUC	0.29
UAACAGGGGGCCACAGCAGUAGCGUUCACGUCGCAGCCCCUGUCAGAUUCUGGUGAAUCUGCGAGCUCUGCUGUAUAUCUC	0.13
UAACAGGGGGCCACAGCAGUAGCGUUCACGUCGAAGCCCCCGUCAGAUUCUGGUGAAUCUGCGAGUUCUGCUGUGUAUCUC	0.11
UAACAGGGGGCCACAGCAGUAACGCUCACGUCGCAGCCCCUGUCAGAUUCUGGUGAAUCUGCGAAUUCUGCAGUAUAUCUC	0.08
UAACAGGGGGCCACAGCAGUAGCGUUCACGUCGCAGCCCCUGUCAGAUUCUGGUGGAUCUGCGAGUUCUGCUGUAUAUCUC	0.11
UAACAGGGGGCCACAGCAGUAGCGUUCACGUCGCAGCCCCUGUCAGAUUCUGGUGUUUCUGCGAAUUCUGCUGUAUAUCUC	0.44
UAACAGGGGGCCACAGCAGUAGCGUUCACGUCGCAGCCCCUGUCAGAUUCUGGUGGAUCUGCGUAUUCUGCCGUAUAUCUC	0.19
UAACAGGGGGCCACAGCAGUAGCGUUCACGUCGCAGCCCCUUUCAGAUACAGGUGAAUCUGCGAAUUCUGCUUUAUAUCAC	0.2
UAACAGGGGGCCACAGCAGUAGCGUUCACGUCGCAGCCCCUGUCUGAUCCUGGUGAAUCUGUGAAUUCUGCUGUAUAUCUC	0.14
UAACAGGGGGCCACAGCAGUAGCGUUCACCUCGCAGCCCCUGCCAGAUUCUGGUGAAUCUGCGAAUUCUGCGGUAUAUCUC	0.24
UAACAGGGGGCCACAGCAGUAGCGUUCACGUCGCAGCCCCUGUCAGAUUCUGGUGAAUCUGCGGAUGCUGCAGUAUAUCUC	0.17
